The results in this text go back to PubChem BioAssay AID1508642 (National Center for Advancing Translational Sciences (NCATS), 2021).

Molecules are shown by their SMILES. About 200 (0.47%) of roughly 43,000 compounds were called active. About 12% were inconclusive and are not listed. Calls follow the shape of the dose curve; as a rule, active = well fitted cell-killing curve with a large enough effect; inconclusive = small, poorly fitted or top-dose-only effect, or effect the other way; inactive = flat fitted curve, though single readings scatter. This is one part of the list.
% is scaled to controls: 0 for no effect and ±100 for the full control effect.

This experiment is described as follows: Cell viability qHTS assay in S16 Pmp22-F2sN cells. Also: nearly all actives have a fitted effect of over 65% in size. As to conditions: S16 Pmp22-F2sN Schwann cells viability, CellTiter-Glo, 24 h; series mostly up to 57.5 µM; activity change, negative = cytotoxicity: at the top concentration. Summed up: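 Viability was measured by CellTiter-Glo luminescence (15 min, room temperature). This followed 24 h at 37 °C of compound exposure (23 nL pin transfer) in S16 Pmp22-F2sN Schwann cells, 500-1,000 per well.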
For the molecule `CCC1CCCCN1CCCNC(=O)c1cc2c(=O)n(CC)c3ccccc3c2s1` (stereo unspecified), the “activity change, negative = cytotoxicity” value was inactive: 8.17%.
For `COc1ccc(NC(=O)C2CCCN(S(=O)(=O)c3cccs3)C2)cc1` (stereo unspecified) the value was inactive: 22.2%; for `CCN(CC)C(=O)c1sc2c(c1C)c(=O)n(-c1ccc(Cl)c(Cl)c1)c(=O)n2CC(=O)Nc1cccc(OC)c1`, inactive: -15.9%; for `CCOC(=O)c1nnn(CC(=O)NC(=O)Nc2cccc(CC)c2)c1C(=O)OCC`, inactive: -1.95%.
Consider `O=C(COc1ccc(Cl)cc1)NCCc1csc(-c2ccc(F)cc2)n1`, for which the “activity change, negative = cytotoxicity” value is inactive: -0.126%.
For `COC(=O)c1c(N)n(-c2ccc(OC)c(Cl)c2)c2nc3ccccc3nc12` the value was inactive: 4%.
For `COc1ccc(-c2nnc3c4ccccc4c(-c4ccccc4)nn23)cc1` the value was inactive: -13%; for `O=C(Nc1ccccc1F)c1ccc(-c2ccccc2)s1`, inactive: -1.22%; for `Cc1nn(C)c(C)c1S(=O)(=O)N(CC(=O)N1CCN(c2ccccc2)CC1)c1ccc(C(C)C)cc1`, inactive: 2.84%.
For `Cc1ccccc1NC(=O)c1ccc(F)c(S(=O)(=O)N(C)C2CCCCC2)c1` the value was inactive: -14.3%; for `CCCCCNC(=O)c1ccc2c(c1)nc(C)n2-c1cccc(C)c1`, inactive: -25.1%; for `O=C(CCn1c(=O)c2cccn2c2ccccc21)Nc1ccc(F)cc1`, inactive: 0.264%.
`Cc1ccc(C)c(NC(=O)Cn2c(=O)ccc3cc(S(=O)(=O)N4CCCC4)ccc32)c1`: the “activity change, negative = cytotoxicity” value was inactive: 2.63%.
As for `COc1ccccc1NC(=O)c1cc2c([nH]c1=O)CC(C)(C)CC2=O`, the “activity change, negative = cytotoxicity” value is inactive: -0.187%.
In the case of `COc1cccc2c1Oc1ncccc1N(C(=O)Nc1cccc(Cl)c1)C2`, the “activity change, negative = cytotoxicity” value was inactive: 15.3%.
Consider `Cc1ccc(CNC(=O)c2cc(S(=O)(=O)N3CCCCCC3)cn2C)cc1`, for which the “activity change, negative = cytotoxicity” value was inactive: 19.6%.
For `COc1ccc(CNS(=O)(=O)c2cnc(N)nc2)cc1` the value was inactive: -1.25%; for `Cc1cccc(CNC(=O)c2ccc3c(c2)N(C)C(=O)C2CCCCN32)c1` (stereo unspecified), inactive: -27.9%; for `CCOc1ccc(NS(=O)(=O)c2ccc3[nH]cc(C(=O)NCc4ccccc4)c(=O)c3c2)cc1`, inactive: 4.55%.
For `Cn1nc(-c2ccc(C(=O)Nc3cccc(C(F)(F)F)c3)cc2)c2ccccc2c1=O` the value was inactive: 9.33%.
For `CCCCC(=O)OC1=C(C(=O)c2ccccc2)N(C)S(=O)(=O)c2ccccc21` the value was inactive: 2.72%; for `CSc1ccc(CNC(=O)c2cc3cc(S(=O)(=O)N4CCCCC4)ccc3n2C)cc1`, inactive: -9.89%; for `O=C(Nc1cccc(-c2nc3ccccc3o2)c1)c1cccc(Br)c1`, inactive: 1.76%.
With `CCOC(=O)c1c(Nc2cc(C)cc(C)c2)nnc(-c2ccccc2)c1-c1ccccc1`, the “activity change, negative = cytotoxicity” value was inactive: -15.6%.
For `COc1ccc(Cn2ccc3nc(C)c(C(=O)Nc4ccc(OC(F)(F)F)cc4)cc3c2=O)cc1` the value was inactive: 2.84%; for `COc1ccccc1CNS(=O)(=O)c1ccc(F)c(C(=O)Nc2cc(Cl)ccc2OC)c1`, inactive: 12.8%; for `O=C(NCC(c1cccnc1)N1CCc2ccccc2C1)C(=O)Nc1ccccc1` (stereo unspecified), inactive: -8.63%.
For `COc1ccccc1N1CCN(S(=O)(=O)c2c(C)nc3sc(C)c(C)n3c2=O)CC1` the value was inactive: -0.155%; for `COc1cccc(CNC(=O)C2CCN(S(=O)(=O)N3CCC(C)CC3)CC2)c1`, inactive: 10.6%.
For `CC1CCN(S(=O)(=O)c2ccc3nc(Nc4ccc(C#N)cc4)ccc3c2)CC1` the value was inactive: -7.12%.
With `O=C(Nc1ccccc1)c1cn(-c2ccccc2)nc1-c1ccccc1`, the “activity change, negative = cytotoxicity” value is inactive: 2.21%.
For `Cc1cccc(-n2c3nc(=O)[nH]c(=O)c-3cc3c(C)nn(-c4ccccc4)c32)c1C` the value was inactive: -0.64%; for `COc1ccccc1NC(=O)CSC1=Nc2ccccc2N=C(c2ccc(F)cc2)C1`, inactive: -12.7%.
As to `CCN(CC)C(=O)CSc1nc2ccccc2c(=O)n1Cc1ccco1`, the “activity change, negative = cytotoxicity” value is inactive: -1.14%.
For `Cc1ccc(NC(=O)Cn2c(-c3cncs3)nc3ccccc32)cc1Br` the value was inactive: 1.76%; for `COc1ccc(Cl)cc1NC(=O)N1CC(=O)Nc2sc3c(c2C1c1ccccc1)CCCC3` (stereo unspecified), inactive: 9.23%.
For `CCCc1nccn1S(=O)(=O)c1cc(Br)ccc1OC` the value was inactive: 3.13%; for `COc1ccc(NC(=O)CN2C(=O)CCc3cc(S(=O)(=O)N4CCOCC4)ccc32)cc1Cl`, inactive: 0.433%.
For `COc1cc2c(C(=O)N(C)c3cc(Cl)ccc3OC)cn(CC(C)C)c(=O)c2cc1OC` the value was inactive: -0.553%; for `CCN(C(=O)Cn1c(=O)n(CC2CCC(C(=O)NC)CC2)c(=O)c2sccc21)c1ccccc1` (stereo unspecified), inactive: 9.82%.
For the molecule `Cc1nn(CCCC(=O)Nc2cccc(F)c2)c(=O)c2c1sc1ccccc12`, the “activity change, negative = cytotoxicity” value is inactive: 4.62%.
For `Cc1ccccc1CNC(=O)CCC(=O)N1CC2CCCN2c2ccccc21` (stereo unspecified) the value was inactive: 23.2%; for `Cc1cc(O)c(-c2ccnc3cc(-c4ccccc4)nn23)cc1Cl`, inactive: 25.2%; for `CCc1ccc2c(c1)-c1ccccc1S(=O)(=O)N2CC(=O)N1CCC(C)CC1`, inactive: -8.67%.
Regarding `COc1cccc(Cn2c(CNS(=O)(=O)c3ccc4c(c3)CCCC4)nc3cccnc32)c1`, the “activity change, negative = cytotoxicity” value is inactive: -23.9%.
As for `CC1CCN(S(=O)(=O)c2ccc3c(c2)N(CC(=O)N2CCN(c4ccccc4)CC2)C(=O)CO3)CC1`, the “activity change, negative = cytotoxicity” value is inactive: 2.5%.
For `CC(=O)c1ccc(NC(=O)Cn2ncc3c(C)n(Cc4ccc(F)cc4)c(C)c3c2=O)cc1` the value was inactive: 18.9%.
For `COc1ccccc1C(=O)Nc1nc2nc(C)c(Cc3ccccc3)c(=O)n2[nH]1` the value was inactive: -0.319%.
Turning to `COc1ccccc1CNc1ncnc2c1c(-c1ccccc1)cn2-c1cccc(C)c1`, the “activity change, negative = cytotoxicity” value was inactive: 4.11%.
For `COc1ccc(Nc2ncc3c(n2)CCN(C(=O)OC(C)(C)C)C3)cc1` the value was inactive: -0.142%.
For `COc1ccccc1CN1CCN(C2CCN(C(=O)NC(C)C)CC2)C(=O)C1=O` the value was inactive: 8.16%; for `Cc1ccc(Nc2cc(C(=O)NCc3cccs3)c3ccccc3n2)c(C)c1`, inactive: -1.94%; for `Cc1ccc(CCNC(=O)c2cc(-c3ccc(Cl)cc3)n[nH]2)cc1`, inactive: 0.506%.
As to `Cc1ccc(NC(=O)c2ccc3[nH]c(C)cc(=O)c3c2)c(C)c1`, the “activity change, negative = cytotoxicity” value was inactive: 8.1%.
Consider `Cc1ccc(NC(=O)Cc2coc3c(C)c(C)ccc23)cc1Cl`, for which the “activity change, negative = cytotoxicity” value is inactive: -4.12%.
`CCOc1ccccc1C(=O)N(Cc1cccs1)c1ccc(Cl)cc1`: the “activity change, negative = cytotoxicity” value was inactive: -13.5%.
`COc1cc2ccccc2cc1C(=O)Nc1ccc2oc(-c3ccccc3)nc2c1`: the “activity change, negative = cytotoxicity” value is inactive: -2.13%.
`COc1ccc(C)cc1NC(=O)CC(=O)Nc1ccc2nc3n(c(=O)c2c1)CCCCC3`: the “activity change, negative = cytotoxicity” value is inactive: -14.9%.
With `O=C(NCCc1csc(-c2ccc(F)cc2)n1)c1c(F)cccc1Cl`, the “activity change, negative = cytotoxicity” value was inactive: 5.35%.
On to `O=C(COC(=O)c1cc(-c2ccccc2)nc2c(Cl)cccc12)c1ccc(F)cc1`, for which the “activity change, negative = cytotoxicity” value was inactive: -0.232%.
For `CCOc1ccc(-n2c(=O)c3c(C)c(C)sc3n(Cc3cc(=O)n4cc(Cl)ccc4n3)c2=O)cc1` the value was inactive: -8.51%; for `CC(C)CSc1oc(-c2ccco2)nc1S(=O)(=O)c1ccc(Br)cc1`, inactive: -10.3%.
For `O=C(NCc1ccco1)c1ccc2c(c1)N(Cc1ccccc1F)C(=O)c1ccccc1S2=O` (stereo unspecified) the value was inactive: 2.81%; for `COc1ccc(NC(=O)CSC2=Nc3ccccc3C3=NC(CCC(=O)NCCc4ccccc4)C(=O)N23)c(OC)c1` (stereo unspecified), inactive: 0.152%.
For `CCn1cc(C(=O)N2CCN(c3ccc(OC)cc3)CC2)c(=O)c2cc(S(=O)(=O)N(C)C3CCCCC3)ccc21` the value was inactive: -13.5%; for `COc1cccc(CNC(=O)c2nn(C)c3c2CS(=O)(=O)c2ccccc2-3)c1`, inactive: -29.2%; for `COc1ccc(CNC(=O)c2cc(C)nc3c2c(C)nn3-c2cccc(Cl)c2C)cc1`, inactive: -2.05%.
In the case of `CC(C)CN(CCCNC(=O)c1cn(C)c2ccc(S(=O)(=O)N(C)C3CCCCC3)cc2c1=O)CC(C)C`, the “activity change, negative = cytotoxicity” value is inactive: -4.04%.
For `COc1cccc(NC(=O)C(CCSC)NC(=O)C2CCC(C)CC2)c1` (stereo unspecified) the value was inactive: 1.74%.
For `Cc1cccc(OC(=O)c2cc(-c3ccc(Cl)cc3)on2)c1C` the value was inactive: 1.22%.
For `COC(=O)c1ccc(NC(=O)CSc2n[nH]c(CC(C)C)n2)cc1` the value was inactive: 0.129%.
As to `COc1ccc(CNC(=O)c2cc3cccc(OC)c3oc2=O)cc1`, the “activity change, negative = cytotoxicity” value is inactive: -1.66%.
Turning to `Cc1ccc(-c2nn(CC(=O)Nc3cccc(C(F)(F)F)c3)c(=O)c3ccccc23)cc1`, the “activity change, negative = cytotoxicity” value is inactive: 3.58%.
`Cc1ccc(CNC(=O)c2ccc3c(c2)N(Cc2cccc(C)c2)C(=O)CS3)cc1`: the “activity change, negative = cytotoxicity” value is inactive: 10.8%.
For `Cc1oc(C)c2c(=O)cc(-c3ccc4c(c3)OCO4)cc(OC(=O)c3ccc(Cl)cc3)c12` the value was inactive: 2.74%; for `Cc1ccc(-c2nonc2NC(=O)c2ccco2)cc1C`, inactive: -4.68%.
For `Cc1ccc(-c2nc3ccccc3[nH]2)cc1NC(=O)COc1cccc(C)c1C` the value was inactive: 25%.
As to `COc1ccc(C)cc1NC(=O)CCn1nc(C)cc1C`, the “activity change, negative = cytotoxicity” value was inactive: 8.68%.
For the molecule `Cc1cccc(C)c1NC(=O)CSCc1cnn(-c2ccccc2)c1-n1cccc1`, the “activity change, negative = cytotoxicity” value is inactive: -20%.
For `CCC(Sc1nc2ccccc2c2nc(CCc3c(C)n[nH]c3C)nn12)C(=O)Nc1ccccc1F` (stereo unspecified), the “activity change, negative = cytotoxicity” value is inactive: -6.48%.
As to `COc1cccc(-c2noc(-c3cc4ccccc4oc3=O)n2)c1OC`, the “activity change, negative = cytotoxicity” value is inactive: 9.68%.
`O=C(NCc1ccc2c(c1)CCN2C(=O)c1ccc(F)cc1)c1c(F)cccc1F`: the “activity change, negative = cytotoxicity” value was inactive: 6.07%.
Consider `COC(=O)c1ccc(NC(=O)C(=O)NCCc2csc3nc(-c4ccccc4F)nn23)cc1`, for which the “activity change, negative = cytotoxicity” value is inactive: 6.15%.
Turning to `CCN(CC)S(=O)(=O)c1ccc2c(c1)N(CC(=O)Nc1cccc(C)c1C)C(=O)C1CCCN21` (stereo unspecified), the “activity change, negative = cytotoxicity” value was inactive: -6.42%.
For `COc1cc(OC)c(NC(=O)C(CC(C)C)N2Cc3ccccc3C2=O)cc1Cl` (stereo unspecified) the value was inactive: -10.1%; for `CCOc1ccccc1NC(=O)CSc1cn(CC(=O)N2CCCCCC2)c2ccccc12`, inactive: 6.86%; for `Nc1nonc1-c1nc2ccccc2n1CC(=O)Nc1cccc(C(F)(F)F)c1`, inactive: -17.2%.
For `Cc1ccc(NC(=O)CCN2C(=O)c3ccccc3Sc3ncccc32)cc1` the value was inactive: -0.0364%; for `Cc1cccc(Cn2cc3c(=O)n(CC(=O)Nc4cccc(C)c4C)nc-3c3cc(F)ccc32)c1`, inactive: 1.46%.
For `Cc1c(C(=O)Nc2cccc(C(F)(F)F)c2)sc2nc3n(c(=O)c12)CCC3` the value was inactive: -11.9%; for `COc1ccc(NC(=O)c2cc(C3CC3)nc3c2c(C)nn3-c2ccccc2)c(OC)c1`, inactive: -0.355%; for `CC(C)Cc1nn2c(=O)cc(COC(=O)c3cccc(NC(=O)c4ccccc4)c3)nc2s1`, inactive: 4.72%.
With `Cc1cccc(N2CCN(C(=O)c3cc4ccc5cccnc5c4[nH]3)CC2)c1C`, the “activity change, negative = cytotoxicity” value is inactive: 8.69%.
In the case of `COCCn1c(C)cc(O)c(C(c2ccccc2)N2CCCCC2)c1=O` (stereo unspecified), the “activity change, negative = cytotoxicity” value was inactive: -1.61%.
For `CCc1ccccc1NC(=O)N1CCN(Cc2nc3ccc(C)cc3o2)CC1` the value was inactive: 11%; for `Cc1ccc(-n2ncc3c(Nc4ccc(Oc5ccccc5)cc4)ncnc32)cc1`, inactive: -1.54%.
